Experimental data reported in PubChem BioAssay (NCI).
Where “and” joins values, the source holds several entries; their conditions need not be identical. Equal entries are not always repeated.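 Each compound was tested at five concentrations against cells in 96-well plates for 48 hours. GI50 marks 50% less growth. At the TGI there is no net growth.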

Tested on: NCI-H322M lung
Experiment: NCI tumour cell line growth inhibition, 48 h

## CC[C@]1(Cc2ccc(OC)c(OC)c2)C=[N+]([O-])O[C@H](OCc2ccccc2)[C@@H]1OC(C)=O
  TGI: > 100 µM

## CC(=N\O)/C(C)=N/O.CC(=N\O)/C(C)=N/O.[Fe].[NH2-].c1c[nH]cn1
  GI50: > 100 µM
  TGI: > 100 µM

## Oc1ccc(/C=N/NC(=S)Nc2cccnc2)nc1
  TGI: > 100 µM

## c1ccc(COC[C@H]2C3OCC([C@H](OCc4ccccc4)[C@H]3OCc3ccccc3)N2Cc2ccccc2)cc1 (some centres undefined)
  TGI: > 100 µM

## O=C(CCl)Nc1ccc(Cc2ccc(NC(=O)CCl)cc2)cc1
  GI50: 2.08 µM
  TGI: 5.71 µM

## Cc1cn2c(/C=C3\C(=O)N(C)c4ccc(Cl)cc43)c(C)nc2s1
  GI50: > 100 µM
  TGI: > 100 µM

## CC(C)CC1NC(=O)CCC(NC(=O)C(Cc2ccc(O)cc2)NC(=O)OCc2ccccc2)C(=O)NC(Cc2ccccc2)C(=O)NC(Cc2ccccc2)NC1=O (centres undefined)
  TGI: > 100 µM

## CCOC(=O)c1nc2cc(F)cc(F)c2[nH]c1=O
  TGI: > 100 µM

## COC(=O)C1=COC2OC3CC1C2C(C)O3 (centres undefined)
  TGI: > 100 µM

## COC(=O)[C@@H]1[C@H]2CC[C@]3(C)[C@@H](OC(C)=O)CC[C@H]3[C@@H]2CC[C@H]1C(C)=O
  TGI: > 100 µM

## CCC(C)C(=O)OC1CCC=C2C=CC(C)C(CCC3CC(O)CC(=O)O3)C21 (centres undefined)
  TGI: > 100 µM

## Cn1c(N)c(/C=C/C(=O)Oc2ccccc2)c(=O)n(C)c1=O
  TGI: > 100 µM

## O=C(O)CCSC(=O)Nc1ccccc1
  TGI: > 100 µM

## CNC(=O)NCCN1N=C(C)/C(=C\c2ccccc2)CC1=O
  TGI: > 100 µM

## C/C(=N/N)c1sc(-c2nc(C)c(/C(C)=N\N)s2)nc1C
  TGI: > 100 µM

## NC(=O)c1ncn2c(=O)n(CCCl)nnc12
  TGI: 500 µM

## CCOC(=O)c1ccc(N(CCOS(=O)(=O)c2ccc(C)cc2)CCOS(=O)(=O)c2ccc(C)cc2)cc1
  TGI: > 100 µM

## CCC(C(=O)[C@@H](C)[C@@H](O)[C@H](C)[C@@H]1O[C@@H]([C@@H](CC)C(=O)ONC(=O)c2ccccc2)CC[C@@H]1C)[C@H]1O[C@]2(C=CC(=O)[C@]3(CC[C@@](C)([C@H]4CC[C@](O)(CC)[C@H](C)O4)O3)O2)[C@H](C)C[C@@H]1C (some centres undefined)
  GI50: 1.85 µM
  TGI: > 22.7 µM

## COC1OC(Cn2cc([N+](=O)[O-])nc2C)C(O)C(O)C1O (centres undefined)
  TGI: > 100 µM

## C=C1C(=O)O[C@H]2[C@H]1CC/C(COC(=O)N[C@H](Cc1c[nH]c3ccccc13)C(=O)OC)=C\CC[C@@]1(C)O[C@@H]21
  GI50: 9.31 µM
  TGI: 21.4 µM

## COc1ccc(NC(=O)NNS(=O)(=O)c2ccc(C)cc2)cc1
  TGI: > 100 µM

## COc1ccc2nc3ccccc3c(NCc3ccccc3)c2c1
  GI50: 1.93 µM
  TGI: 5.47 µM

## Nc1ncnc2c1ncn2CCCCC(=O)O
  TGI: > 100 µM

## O=c1[nH]c2ccccc2n1C1CCN(CCOc2ccccc2)CC1
  GI50: 98 µM
  TGI: > 100 µM

## C/C=C(\C)C(=O)O[C@@H]1C=CC(=O)O[C@H]1CNC(=O)[C@H](C)O
  GI50: 28 µM
  TGI: 75.4 µM

## CN(C)CCNC(=O)c1cccc2c1nc(-c1ccncc1)c1ccccc12
  TGI: 18.9 µM

## CC(C)(C)OC1=C(OC(C)(C)C)C(O)(c2ccc(Cl)cc2)C1=O (centres undefined)
  TGI: > 100 µM

## CCOC(=O)c1cc(C(=O)c2cc(OC)c(OC)c(OC)c2)n2ccc(-c3cc[n+](CC(=O)c4cc(OC)c(OC)c(OC)c4)cc3)cc12
  GI50: 2.3 µM
  TGI: 7.45 µM

## CN(C(=O)c1ccccc1)c1ccc2c(c1)C(=O)c1ccccc1C2=O
  TGI: > 100 µM

## O=C(O)CCC(NC(=O)c1ccc(CNc2nc3cc(C(F)(F)F)ccc3nc2C(=O)O)cc1)C(=O)O (centres undefined)
  TGI: > 100 µM

## COc1cc2c(cc1O)C(=O)O[C@@H]1CC=C3CCN(C)[C@H]3[C@H]21
  TGI: > 25 µM

## COc1ccc(NC(=O)c2cccc(C3CCc4c(cc(OC)c(OC)c4OC)O3)c2)cc1 (centres undefined)
  GI50: 6.47 µM
  TGI: > 100 µM

## O=C(Nc1ccc(Cl)cc1)N1CCN(c2ccc3nncn3n2)CC1
  GI50: > 100 µM
  TGI: > 100 µM

## Cc1cc(C)c(C(=O)C(C)C(c2ccccc2)c2ccc(Cl)cc2)c(C)c1 (centres undefined)
  TGI: > 100 µM

## O=C(O)CCC(NC(=O)c1ccc(Oc2nc3ccccc3nc2-c2ccccc2)cc1)C(=O)O (centres undefined)
  TGI: > 100 µM

## CCOC(=O)CCn1cnc(N)n1
  TGI: > 100 µM

## CC(=O)N1N=C(c2ccc3ccccc3c2O)CC1c1ccc(N(C)C)cc1 (centres undefined)
  TGI: > 100 µM

## Cc1cn(C2CC(O)C(COC(N)=O)O2)c(=O)[nH]c1=O (centres undefined)
  TGI: > 100 µM

## Cn1c(=O)[nH]c2c(c1=O)C(=O)CN2
  TGI: > 100 µM

## CCOC(=O)c1ccc(NC(=O)c2cccc(NC3=C(Cl)C(=O)N(Cc4ccccc4)C3=O)c2)cc1
  GI50: > 100 µM
  TGI: > 100 µM

## COc1cccc(-c2nn(-c3ccccc3)cc2-c2ccnc(NCCCNS(=O)(=O)c3ccc(C(F)(F)F)cc3)c2)c1
  GI50: > 100 µM
  TGI: > 100 µM

## COc1ccc(N[C@@H]2c3cc4c(cc3C(c3cc(OC)c(O)c(OC)c3)[C@H]3C(=O)OCC32)OCO4)cc1OC (some centres undefined)
  TGI: > 100 µM

## COc1cc2c(cc1OC)[C@H]1C(COC(=O)Nc3ccccc3)CN1CC2 (some centres undefined)
  TGI: > 100 µM

## N/C(=N/S(=O)(=O)c1cc(C(=O)Nc2ccc(F)cc2)c(Cl)cc1SCc1ccccc1)Nc1ccccc1O
  GI50: 1.62 µM
  TGI: 3.47 µM

## c1ccc2c(c1)[nH]c1c3ccccc3sc21
  TGI: > 100 µM

## CCOc1nc2sc3c(c2c(=O)n1CCSSCCn1c(OCC)nc2sc4c(c2c1=O)CCCC4)CCCC3
  TGI: > 100 µM

## COc1ccc(/C=C/c2nc(=S)[nH][nH]2)cc1OC
  TGI: > 100 µM

## O=C(NC(CCCCN1C(=O)c2ccccc2C1=O)P(=O)(Oc1ccccc1)Oc1ccccc1)OCc1ccccc1 (centres undefined)
  TGI: > 100 µM

## C/C=C1/C(=Cc2[nH]c(C=c3[nH]/c(=C/C4=NC(=O)C(CC)=C4C)c(C)c3CCC(=O)O)c(CCC(=O)O)c2C)NC(=O)C1C (centres undefined)
  TGI: > 50 µM

## CCCC(C(=O)Nc1cccc2[nH]cnc12)C(=O)OCC (centres undefined)
  TGI: > 100 µM

## Nc1no[n+]([O-])c1-c1nnc2c(n1)-c1ccccc1C2=O
  GI50: 3.03 µM
  TGI: 10.6 µM

## CCCCCC(/C=C/c1ncccc1OCCCCCC(=O)O)=N\NC1=NCCN1
  TGI: > 100 µM

## CC1N=C(c2ccccc2)OC1=O (centres undefined)
  TGI: > 100 µM

## COC1(OC)C2C=CC1C([C@](C)(N)CO)C2 (some centres undefined)
  TGI: > 100 µM

## CN1CCN(Cc2ccccc2)CC1CC#N (centres undefined)
  TGI: > 100 µM

## C[Si](C)(C)/C=C/CN1C(=O)CCC1=O
  TGI: > 100 µM

## C1=Cc2cccc3occ(c23)C=C1
  TGI: > 100 µM

## COc1cccc(CCn2c(N)c(C#N)c3ccc([N+](=O)[O-])cc3c2=O)c1
  TGI: > 46.4 µM

## COc1ccc(NC(/C(C(=O)C(=O)/C=C(\O)c2ccccc2)=C(\O)c2ccccc2)c2ccc(OC)cc2)cc1 (centres undefined)
  TGI: > 100 µM

## OCC1OC(n2cnc3c(NCc4ccccc4O)ncnc32)C(O)C1O (centres undefined)
  GI50: 0.69 µM
  TGI: > 53.7 µM

## CCN(CC)CCCNc1cc(OC)c(OC)c2cccnc12
  GI50: 10 µM
  TGI: 37.6 µM

## Oc1cc(O)c2c(c1)OC(c1ccc(O)c(O)c1)C(O)C2c1c(O)cc(O)c2c1OC(c1ccc(O)c(O)c1)C(O)C2 (centres undefined)
  TGI: > 100 µM

## CCC(=C(c1ccc(OCCN2CCCC2)cc1)c1ccc(OCCN2CCCC2)cc1)c1ccc(Cl)cc1
  GI50: 0.603 µM
  TGI: 1.18 µM

## CCN1C/C(=C\c2ccc(Cl)cc2)c2[nH]c(=O)c(C#N)c(-c3ccc(Cl)cc3)c2C1
  TGI: > 100 µM

## CCOC(=O)C1=NNC(C(=O)c2ccccc2)C1c1ccccc1 (centres undefined)
  TGI: 33.3 µM

## Cc1cc(OCc2nn(CN3CCN(C)CC3)c(=S)n2/N=C/c2ccc(F)cc2)ccc1Cl
  GI50: 16.4 µM
  TGI: 36.8 µM

## O=C(Nc1cc2cc([N+](=O)[O-])ccc2oc1=O)c1cccs1
  TGI: > 100 µM

## O=S(=O)(CF)OCCCCOS(=O)(=O)CF
  TGI: > 100 µM

## COc1ccc2c(c1)C(=O)c1c-2n(CCCCl)c(=O)c2cc(N)ccc12
  GI50: > 100 µM
  TGI: > 100 µM

## CC(=O)OCC1OC(n2c(O)c(N=NC(N)=S)c3ccc([N+](=O)[O-])cc32)C(OC(C)=O)C1OC(C)=O (centres undefined)
  TGI: 73.5 µM

## Cc1nn(-c2ccccc2)c2nc(C)n(-c3ccc(Br)cc3)c(=O)c12
  GI50: 7.12 µM
  TGI: > 100 µM

## O=C1C2C3C=C4c5ccccc5N(c5ccccc5)C4([C@@H]2C(=O)N1c1ccc(F)cc1)[C@H]1C(=O)N(c2ccc(F)cc2)C(=O)[C@@H]31 (some centres undefined)
  TGI: > 100 µM

## O=C(COc1cccc(/C=C2\Oc3ccc4ccccc4c3C2=O)c1)c1ccc([N+](=O)[O-])cc1
  GI50: > 100 µM
  TGI: > 100 µM

## CC(=O)c1cccc(Nc2nc3ccccc3c3[nH]c4ccccc4c23)c1
  TGI: > 100 µM

## CCOC(=O)c1csc(-c2cn(C)c3c2C(=O)C(OC)=CC3=O)n1
  TGI: > 100 µM

## CC(=O)O[C@H]1CC[C@]2(C)C3C(=O)C[C@]4(C)[C@@H](C(C)CCC(=O)O)CC[C@@]4(C)[C@@H]3CC[C@H]2C1(C)C (some centres undefined)
  GI50: 26.3 µM
  TGI: > 50 µM

## CN1C(=O)N(c2nc3ccccc3[nH]2)C(C)(C)C1=O
  TGI: > 100 µM

## COc1cc(/C=C/c2ccnc3ccccc23)cc(OC)c1OC
  TGI: 32.5 µM and > 100 µM

## O=C(c1ccc(Nc2nccc(NCCCCNc3ccnc4cc(Cl)ccc34)n2)cc1)N1CCCCC1
  GI50: 3.15 µM
  TGI: 13.2 µM

## Cc1ccc(/C(=C/C=C(C#N)C#N)Sc2nc3ccccc3s2)cc1
  GI50: 15.8 µM
  TGI: 34.6 µM

## Nc1cc(N)c2nc(-c3ccccc3)c(NCc3ccc(Cl)c(Cl)c3)nc2c1
  GI50: 13.5 µM
  TGI: 30.5 µM

## CCN(CC)CCCC(C)Nc1ccnc(/C=C/c2ccc(Cl)cc2)c1 (centres undefined)
  TGI: 8.26 µM

## NC(Cc1c[nH]c2cccc(F)c12)C(=O)O (centres undefined)
  GI50: 94 µM and 523 µM
  TGI: 2160 µM

## COC(=O)C(=O)C(C(C)=O)C(=O)C(=O)Nc1ccc(C)cc1C (centres undefined)
  TGI: > 100 µM

## O=C(NCc1ccccc1)C1C(=O)C(=O)N(Cc2ccccc2)C1=O (centres undefined)
  TGI: > 100 µM

## O=C(CC1Sc2ccccc2NC1=O)NNc1ccc(F)cc1 (centres undefined)
  GI50: > 100 µM
  TGI: > 100 µM

## N[C@H]1CCN(c2c(F)cc3c(=O)c(C(=O)O)cn4c3c2Oc2c-4ccc3c2ccc2ccccc23)C1
  TGI: > 55.3 µM

## CC1=NNC(=O)C1C1C=C(c2c[nH]c3ccccc23)OC1=O (centres undefined)
  TGI: > 100 µM

## C[C@]12CC[C@H](O)CC1=CC[C@@H]1[C@@H]2CC[C@]2(C)NC(=O)/C(=C\c3ccccc3)C[C@@H]12
  TGI: 28.8 µM

## CC(=O)OCC1=CC2CCC3C(C)(CCC[C@]3(C)COC(C)=O)C23CC[C@H]1C3 (some centres undefined)
  TGI: > 100 µM

## CC(=O)c1ccc(Oc2c3ccccc3nc3occc23)cc1
  GI50: 0.0186 µM
  TGI: 74 µM

## CSc1cc(C(C)(C)C)ccc1C(O)c1ccc(C(C)(C)C)cc1SC
  TGI: 30.9 µM

## COC(=O)CNC(=O)CSc1nnc(COc2ccc(Cl)cc2)n1-c1ccccc1
  TGI: 50 µM

## CCOP(=O)(OCC)C(NC(c1ccccc1)c1ccccc1)c1ccc(C(C)C)cc1 (centres undefined)
  GI50: 5.13 µM
  TGI: 18.7 µM
